According to PubChem BioAssay AID1745845 (National Center for Advancing Translational Sciences (NCATS), 2022):
Where “and” joins values, the source holds several entries; their conditions need not be identical. Equal entries are not always repeated. Among all 360,000 compounds or so, about 2,600 (0.72%) were called active. Inconclusive results, whose numbers are uncertain, are shown with a selection of clear calls. The call rests on the fitted dose curve; in most records, active means well fitted inhibition curve with a large enough effect; inconclusive means small, poorly fitted or top-dose-only effect; inactive means no such curve, though single readings can be large or run the other way. Where the call is inconclusive, the potency comes from a doubtful curve fit.

Assay: Primary qHTS for Inhibitors of ATXN expression; further: nearly all actives have a fitted effect of over 55% in size
Details: HEK-293 ATXN2-luciferase reporter, luminescence, 24 h; series mostly up to 57 µM
In short: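 ATXN2-luciferase reporter cells (luciferase flanked by upstream and downstream ATXN2 gene portions) were treated 24 h at 37 °C with compounds at up to 57 uM. SteadyGlo luminescence gave expression; GF-AFC fluorescence gave viability.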
Potency means the concentration at half of the fitted maximal effect; tags describe the fitted curve by direction and shape.

Potency, inconclusive:
CCNC(=S)N(Cc1ccco1)Cc1cc2cc(OCC)ccc2[nH]c1=O 21.2 µM [inhibitor, single point]
Cc1cc(C)c(OCC(=O)Nc2nc(-c3ccccn3)cs2)c(C)c1 37.7 µM [inhibitor, partial curve, poor fit]
O=C(NCCc1c[nH]c2ccccc12)OCCCCOC(=O)NCCc1c[nH]c2ccccc12 31.6 µM [inhibitor, single point]
O=C1NC(Cc2ccc(O)cc2)c2nc3cc(Cl)ccc3c(=O)n2-c2cc3ccccc3cc21 (stereo not given) 7.08 µM [inhibitor, full curve, poor fit]
CCOC(=O)c1c(CN2CCCCC2)oc2ccc(OC)cc12 20 µM [inhibitor, partial curve, poor fit]
COc1cccc(-n2nc(C(=O)Nc3ccc4c(c3)OCO4)c3ccccc3c2=O)c1 5.62 µM [inhibitor, partial curve, poor fit]
CC(=O)Nc1ccc(SCC(=O)NCCc2ccc(F)cc2)cc1 0.947 µM [inhibitor, full curve, poor fit]
CCCCC(O)(c1ccc(OC)cc1)C(CN1CCOCC1)c1ccccc1 (stereo not given) 39.8 µM [inhibitor, partial curve, poor fit]
Cc1cccc(NC(=O)CC2C(=O)NCCN2C(=O)Nc2ccc(Cl)cc2)c1 (stereo not given) 20 µM [inhibitor, partial curve]
Cc1oc(-c2ccc(C(=O)NCc3ccc(F)cc3)cc2)nc1CS(=O)c1ccccc1 (stereo not given) 28.2 µM [inhibitor, single point]
CC(C)c1ccc(/C=N/NC(=O)CN(c2cccc(Cl)c2Cl)S(C)(=O)=O)cc1 28.2 µM [inhibitor, partial curve, poor fit]
Cc1cc(C)n2c(Nc3c(C)cccc3C)c(-c3ccccn3)nc2n1 31.6 µM [inhibitor, single point]
COc1ccc(CN2CCCC(C(=O)c3ccc(SC)cc3)C2)cc1Cn1cccn1 (stereo not given) 7.08 µM [inhibitor, partial curve, poor fit]
O=Cc1ccc(N2N=C(c3ccccc3)CC2c2ccccc2)cc1 (stereo not given) 5.01 µM [inhibitor, partial curve, poor fit]
CCc1nc2c(OCCOc3ccc(F)cc3)cccn2c1N(C)C(=O)c1ccco1 17.8 µM [inhibitor, single point]
COc1ccccc1-c1ccc2c(c1)C(C)(Cc1ccc(OC(F)(F)F)cc1)C(=O)N2 (stereo not given) 39.8 µM [inhibitor, single point]
COc1ccc(C(C)=O)cc1CSc1nc2ccccc2c(=O)n1-c1ccccc1 31.6 µM [inhibitor, single point]
Cc1ccc(NS(=O)(=O)c2cccc(C(=O)NC3CCN(Cc4ccccc4)CC3)c2)c(C)c1 12.6 µM [inhibitor, partial curve, poor fit]
CC1(C(=O)NCc2cccc3ccccc23)CCN1Cc1ccccc1OC(F)F (stereo not given) 17.8 µM [inhibitor, partial curve]
CC(C#N)(Nc1ccc(Cl)cc1)c1cccnc1 (stereo not given) 6.31 µM [inhibitor, single point]
Cc1ccccc1OCc1n(CC(=O)OC2CC(C)CCC2C(C)C)c2ccccc2[n+]1C (stereo not given) 17.8 µM [inhibitor, partial curve, poor fit]
COc1cc2nc(Nc3ccc(C)c(Cl)c3)nc(N)c2cc1OC 31.6 µM [inhibitor, single point]
CCOc1ccccc1-n1c(SCC(=O)Nc2ccc(CC)cc2)nc2n[nH]c(C)c2c1=N 31.6 µM [inhibitor, single point]
Cc1cccc(N2CCN(C(=O)c3cc4n(n3)C(C(F)(F)F)CC(c3ccco3)N4)CC2)c1C (stereo not given) 35.5 µM [inhibitor, partial curve, poor fit]
COc1cc(-c2nc3cc(C)ccn3c2NC2CCCCC2)ccc1-c1ccc(C(C)=O)cc1 39.8 µM [inhibitor, single point]
COc1ccc(C(=O)Oc2c(Sc3ccccc3)c(C)nn2-c2ccccc2)cc1OC 15.8 µM [inhibitor, single point]
CCc1ccccc1Nc1cc(C(=O)NCCc2ccccc2)c2ccccc2n1 14.1 µM [inhibitor, partial curve, poor fit]
COc1ccc([C@H]2C[C@@H](O)[C@H](n3cc(COC(=O)c4ccccc4)nn3)CN2CC2CCCCC2)cc1 28.2 µM [inhibitor, single point]
O=C(c1ccc(Cl)c(Cl)c1)N1CCC(=O)N([C@H](COCc2ccc(Cl)cc2)Cc2ccccc2)CC1 22.4 µM [inhibitor, single point]
CC(C)c1ccc(NC(=O)Nc2nc(C(N)COCc3ccccc3)cs2)cc1 (stereo not given) 25.1 µM [inhibitor, single point]
O=C(Nc1nnc(-c2ccc3c(c2)CCCC3)o1)c1ccccc1Cl 39.8 µM [inhibitor, single point]
CN1CCN(C2=Nc3cc(Cl)ccc3Nc3ccccc32)CC1 21.7 µM [inhibitor, partial curve, poor fit] and 14.1 µM [inhibitor, full curve]
CCCCCCCCCCCCCCCC(=O)OC(CC(=O)O)C[N+](C)(C)C (stereo not given) 39.8 µM [inhibitor, partial curve, poor fit]
O=C(N/N=C/c1cc(Br)ccc1O)c1ccccc1Cl 3.55 µM [inhibitor, full curve]
CCCCCn1c(=O)c2ccccc2n2c(CCl)nnc12 21.2 µM [inhibitor, single point]
COc1ccc(S(=O)(=O)Oc2ccc3c(c2)O/C(=C\c2cccnc2)C3=O)cc1 28.2 µM [inhibitor, partial curve, poor fit]
COc1ccc(CN(C(=O)CSc2nnc(-c3ccccc3C)o2)c2ccc(F)cc2)cc1 28.2 µM [inhibitor, single point]
CCCCCCNC(=O)CNC(=S)N(Cc1cccs1)C1CCCCC1 39.8 µM [inhibitor, partial curve, poor fit]
CCN(CC)C(=O)c1cccc(-c2csc(C(C)(O)c3ccncc3)n2)c1 (stereo not given) 28.2 µM [inhibitor, single point]
CCOC(=O)C1=C(N)Oc2ccc3ccccc3c2C1c1cccc(O)c1 (stereo not given) 1.19 µM [inhibitor, single point]
CCc1ccc(CN(C)C(=O)c2cc(COc3cc(C)c(Cl)c(C)c3)on2)nc1 25.1 µM [inhibitor, partial curve, poor fit]
CC(C)OC(=O)c1cc(NC(=S)Nc2ccc([N+](=O)[O-])cc2)cc(C(=O)OC(C)C)c1 35.5 µM [inhibitor, single point]

Potency, active:
O=C(CSc1cccc2cccnc12)N/N=C/c1cccnc1 22.4 µM
CCCCC(=O)OCC(=O)C1(O)Cc2c(O)c3c(c(O)c2C(OC2CC(NC(=O)C(F)(F)F)C(O)C(C)O2)C1)C(=O)c1c(OC)cccc1C3=O (stereo not given) 2.51 µM
CC1CCN(c2nc3ccc(C(=O)O)cc3s2)CC1 2.24 µM
O=C(CCl)N(Cc1cccc([N+](=O)[O-])c1)c1cccc(Cl)c1 2.38 µM
CO[C@@H](C(=O)N1Cc2[nH]nc(NC(=O)c3ccc(N4CCN(C)CC4)cc3)c2C1)c1ccccc1 27.3 µM

Potency, inactive:
COc1cccc(NC(=O)Cn2c(=O)n(-c3ccccc3)c(=O)c3ccc(C(=O)NCc4ccc5c(c4)OCO5)cc32)c1
CCOC(=O)c1nc(Nc2cc(C)cc(C)c2)c2ccccc2n1
CCOC(=O)N1CCN(CCC(=O)c2ccc(Cl)cc2)CC1
COC(=O)c1cn(NC(=O)c2cnccn2)c(=O)c2ccccc12
COc1cc(C(=O)N2CCN(Cc3ccccc3C(F)(F)F)CC2)cc(OC)c1OC
CCc1nc(C)cc2c1sc1ccccc12
Cc1nc2c(o1)CCc1ccccc1C2N1CCN(C)CC1 (stereo not given)
COc1ccc(CNC(=O)[C@H](C)NC(=O)C2CCN(C(=O)[C@H](CCSC)NC(=O)OC(C)(C)C)CC2)cc1
CN(Cc1ccccc1)C(=O)c1[nH]cnc1C(=O)Nc1ccc(Br)cc1F
O=C(N/N=C/C=C/c1ccccc1)c1ccncc1
CCC(C)NC(=O)CCC(=O)Nc1ccc2nc(N3CC(C)CC(C)C3)cc(C)c2c1 (stereo not given)
O=C(O)CCCCNCc1ccccc1
COc1ccc2oc(C(=O)OCC(=O)N3CCCC3=O)c(C)c2c1
O=C(NCCc1ccccc1)c1cccc([N+](=O)[O-])c1
C/C=C/COC(=O)c1[nH]c2c(c1C)C(=O)CC(c1ccc(N(C)C)cc1)C2 (stereo not given)
CC(=O)C12OC(C)(C)OC1CC1C3CCC4=CC(=O)C=CC4(C)C3(F)C(O)CC12C (stereo not given)
CCOC(=O)c1scc(-c2ccc(C)cc2)c1S(=O)(=O)Nc1cccc(CC)c1
Cc1cc(=O)n(C)c(=O)n1CCCCCN1CCCC1
